Experimental data from article PMC6919601, “Identification of Plasmodium dipeptidyl aminopeptidase allosteric inhibitors by high throughput screening” (PLoS ONE, 2019).
Hit rate of the full screen: of about 110,000 compounds, about 230 (0.21%) showed an effect of 50% or more. The list shows a part of the results. *1 amine or outer side, *2 acyl side, *3 side chain or, on linkers, in order; H or OH if unused. Where a SMILES comes first, the peptide text is derived from it. [ ]: non-standard residue; d: D form. The star is where a group is joined. aIle = CC[C@@H](C)[C@H](N)C(=O)O; hPhe = N[C@@H](CCc1ccccc1)C(=O)O; CO = O=C([*:1])[*:2]; NHBn = c1ccc(CN*)cc1; CH2F = FC*
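Further: 30 min substrate incubation versus DMSO and 10 µM JCP410 controls.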

Each compound was assayed against DPAP1 (Plasmodium falciparum, UniProt Q8IIJ9) (assay: primary screen, percent inhibition; read by cleavage of a fluorogenic dipeptide substrate; higher = more effect of the substance).
Chain of DPAP1 (Q8IIJ9 whole entry, looked up): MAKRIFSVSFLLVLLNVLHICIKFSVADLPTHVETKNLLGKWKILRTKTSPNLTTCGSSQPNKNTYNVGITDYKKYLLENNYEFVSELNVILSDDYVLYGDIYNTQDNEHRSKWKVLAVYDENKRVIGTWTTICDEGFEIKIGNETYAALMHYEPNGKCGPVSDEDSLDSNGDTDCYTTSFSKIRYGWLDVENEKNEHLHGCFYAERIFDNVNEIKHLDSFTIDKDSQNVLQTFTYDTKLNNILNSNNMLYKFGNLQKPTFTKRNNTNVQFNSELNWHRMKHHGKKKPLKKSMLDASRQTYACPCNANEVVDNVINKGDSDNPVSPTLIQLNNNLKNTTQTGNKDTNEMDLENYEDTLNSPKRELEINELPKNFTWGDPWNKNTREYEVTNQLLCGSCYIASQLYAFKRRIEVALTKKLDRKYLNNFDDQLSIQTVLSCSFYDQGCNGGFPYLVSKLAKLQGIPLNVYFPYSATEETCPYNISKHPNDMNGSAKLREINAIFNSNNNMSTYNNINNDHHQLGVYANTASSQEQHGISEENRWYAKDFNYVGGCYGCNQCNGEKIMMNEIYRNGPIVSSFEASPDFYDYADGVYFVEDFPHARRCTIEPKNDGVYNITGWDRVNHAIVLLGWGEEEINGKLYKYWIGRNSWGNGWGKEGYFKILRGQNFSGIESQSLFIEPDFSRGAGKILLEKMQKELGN
Parameters: species or system P. falciparum D10 trophozoite lysates; single well
`Cc1cccc(/N=C/c2c(O)[nH]c3ccccc23)n1` was tested, and the “% Inhibition @ 10 uM” value was -5.62%. `Cc1ccc(N(CC(=O)Nc2ccc(CC#N)cc2)S(=O)(=O)c2ccccc2)c(C)c1` was tested, and the “% Inhibition @ 10 uM” value was -6.77%. `CC[C@@H](C)[C@H](NC(=O)NCc1ccccc1)C(=O)N[C@@H](CCc1ccccc1)C(=O)CF` ({NHBn-CO}-[aIle]-[hPhe]-CH2F) was tested, and the “% Inhibition @ 10 uM” value was 0.079%. `Clc1cccc(Cl)c1CNc1ccc(CNc2nc[nH]n2)cc1` was tested, and the “% Inhibition @ 10 uM” value was 2.48%. In the case of `Oc1ccc(Br)cc1CN1CCN(Cc2ccccc2C(F)(F)F)CC1`, the “% Inhibition @ 10 uM” value is reported as -5.28%. In the case of `O=C(CC(c1ccccc1)c1ccccc1)N1CCN(c2ncccn2)CC1`, the “% Inhibition @ 10 uM” value is reported as -1.24%. `COc1ccc(C(=O)NCCCCCC(=O)O)cc1` was tested, and the “% Inhibition @ 10 uM” value was 3.66%. In the case of `Cc1ccsc1-c1nnc2n(Cc3ccccc3)c(=O)c3ccccc3n12`, the “% Inhibition @ 10 uM” value is reported as 0.00665%. For `C#CCSc1ccccc1C(=O)O`, the “% Inhibition @ 10 uM” value was 4.88%. With `COc1ccc(-c2c(Cc3ccccc3)nn3c(C)cc(C)nc23)cc1` the “% Inhibition @ 10 uM” value was -1.99%. `CC[n+]1c(C=C2C=CN(C)C=C2)ccc2cc(C)ccc21` was tested, and the “% Inhibition @ 10 uM” value was 21.3%. For `CC(C)C[C@H](NC(=O)N1CCCCCC1)C(=O)NCC#N`, the “% Inhibition @ 10 uM” value was 2.87%. `Cn1cc(/C=C2/SC(Nc3ccccc3)=NC2=O)c2ccccc21` was tested, and the “% Inhibition @ 10 uM” value was -1.89%. With `Cc1ccc(C2OC3(C(=O)c4ccccc4C3=O)C3C(=O)N(c4ccc(F)c(Cl)c4)C(=O)C23)cc1` (stereo not shown) the “% Inhibition @ 10 uM” value was 2.6%. `FC(F)(F)c1cc(-c2ccc3c(c2)OCO3)nc(NC2CCCCC2)n1` was tested, and the “% Inhibition @ 10 uM” value was -2.95%. In the case of `O=C(COc1ccc2ccccc2c1Br)Nc1ccc(S(=O)(=O)N2CCCC2)cc1`, the “% Inhibition @ 10 uM” value is reported as -0.305%. For `CCn1c(/C=N/n2cnnc2)nc2ccccc21`, the “% Inhibition @ 10 uM” value was 4.35%. For `c1cc2c(cc1CN1CCC(N3CCCCC3)CC1)OCO2`, the “% Inhibition @ 10 uM” value was -4.6%. `Cc1nc2ccc(Cl)cc2c2c(N)c3ccccc3n12` was tested, and the “% Inhibition @ 10 uM” value was 66%. For `CCN1C(=O)/C(=C/c2ccc(C)o2)S/C1=N/c1ccc(OC)cc1`, the “% Inhibition @ 10 uM” value was -1.57%. For `CN1CCN(CCCNC(=O)CCCn2c(=O)c3cccn3c3cccnc32)CC1`, the “% Inhibition @ 10 uM” value was -2.15%. For `Cc1cc(=O)n2nc(N(C)CC(=O)NCc3ccc(OC(C)C)cc3)sc2n1`, the “% Inhibition @ 10 uM” value was 1.38%. `Cc1ccc(CN(C(=O)C2C(C=C(Cl)Cl)C2(C)C)C2CCS(=O)(=O)C2)o1` (stereo not shown) was tested, and the “% Inhibition @ 10 uM” value was -2.85%. `CCN1CCCC1CNC(=O)CCn1c(=O)c2cccn2c2cccnc21` (stereo not shown) was tested, and the “% Inhibition @ 10 uM” value was 1.77%. For `O=C(O)[C@@H]1CSC(c2ccc([N+](=O)[O-])cc2)N1` (stereo partly shown), the “% Inhibition @ 10 uM” value was -6.25%. For `CCCC1CCc2c(sc(NC(=O)c3cccs3)c2C(N)=O)C1` (stereo not shown), the “% Inhibition @ 10 uM” value was 8.27%. For `COc1ccc(NC(=O)c2ccc(OC(C)C)cc2)cc1`, the “% Inhibition @ 10 uM” value was -5.6%. In the case of `CC1CCCC(NC(=O)C2CCN(c3ncnc4c3sc3cccc(F)c34)CC2)C1C` (stereo not shown), the “% Inhibition @ 10 uM” value is reported as -0.637%. In the case of `CCCC[C@H](NC(=O)[C@H](CC(C)C)NC(=O)OCc1ccccc1)C(=O)CC(=O)N1CCCC1`, the “% Inhibition @ 10 uM” value is reported as 1.35%. With `O=C(Nc1c(-c2ccccc2)nc2sccn12)c1ccccc1` the “% Inhibition @ 10 uM” value was -5.51%. `O=C(Nc1nccs1)C(Cc1ccccc1)N1C(=O)C2C3C=CC(C3)C2C1=O` (stereo not shown) was tested, and the “% Inhibition @ 10 uM” value was 1.12%. In the case of `COc1ccc(S(=O)(=O)N(C)CC(=O)Nc2ccccc2C(F)(F)F)cc1OC`, the “% Inhibition @ 10 uM” value is reported as -0.891%. For `CC1CC(C)CN(C(=O)Cn2ncc3c4ccccc4nc-3c2O)C1` (stereo not shown), the “% Inhibition @ 10 uM” value was 3.5%. With `O=C(COc1ccc(Cl)cc1)NCc1nnc(SCC(=O)NCC2CCCO2)o1` (stereo not shown) the “% Inhibition @ 10 uM” value was 0.163%. In the case of `CCOc1ccc(C2CC(=O)N3CN(C)CSC3=C2C#N)cc1OC` (stereo not shown), the “% Inhibition @ 10 uM” value is reported as 47.5%. For `OCCN1CCN(Cc2cccc(Cl)c2)CC1`, the “% Inhibition @ 10 uM” value was 3.85%. `Cc1cc(NC(=O)c2cc(-c3ccccc3O)no2)nn1CC(=O)N1CCOCC1` was tested, and the “% Inhibition @ 10 uM” value was 0.526%. In the case of `CCC[C@H](NC(=O)C1(NC(=O)c2ccc(C(F)(F)F)cc2)CCCCC1)C(=O)c1nc2ccccc2o1`, the “% Inhibition @ 10 uM” value is reported as -8.26%. For `CN1CCN(CCCNC(=O)c2nn(C)c3c2CS(=O)(=O)c2ccccc2-3)CC1`, the “% Inhibition @ 10 uM” value was 1.51%. For `O=C(c1ccco1)N1CCN(C(=O)c2ccc(CS(=O)Cc3ccc(Cl)cc3)o2)CC1` (stereo not shown), the “% Inhibition @ 10 uM” value was 3.88%. In the case of `Cc1sc2nc3c4ccccc4c(NCC4CCCO4)nn3c(=O)c2c1C` (stereo not shown), the “% Inhibition @ 10 uM” value is reported as -2.09%. In the case of `CCN(CC)C(=O)/C(=C/c1cn(CC)c2ccccc12)NC(=O)c1cc(OC)c(OC)c(OC)c1`, the “% Inhibition @ 10 uM” value is reported as -0.0235%. `CCOc1ccc(CCNCc2c(C(=O)O)c(C)n(Cc3ccc(F)cc3)c2C)cc1` was tested, and the “% Inhibition @ 10 uM” value was -1.92%. In the case of `COc1ccc2nc(NC(=O)CNS(=O)(=O)c3cccs3)sc2c1`, the “% Inhibition @ 10 uM” value is reported as -2.12%. For `Cc1ccc(NC2=NC(=O)CC(C(=O)Nc3cc(C)cc(C)c3)S2)cc1` (stereo not shown), the “% Inhibition @ 10 uM” value was 16.7%. For `Cc1ccccc1CNCc1ccc(C(=O)O)s1`, the “% Inhibition @ 10 uM” value was -0.0309%. In the case of `O=C1CC(c2ccccc2)c2cc(Cl)ccc2O1` (stereo not shown), the “% Inhibition @ 10 uM” value is reported as -0.0735%. `CC1=C(C(=O)Nc2ccc(Br)cn2)C(c2ccccc2C)C2=C(O)CCCC2=N1` (stereo not shown) was tested, and the “% Inhibition @ 10 uM” value was 2.7%. In the case of `CCCn1c(CCCNC(=O)c2ccc(F)cc2)nc2ccccc21`, the “% Inhibition @ 10 uM” value is reported as 6.03%.
